Measured values from the supplement of paper PMC10126150.
Values marked as one replicate rest on one cluster of the flow cell; about a third of the high ones do not repeat.

These sequences were tested on ATP (assay: switch fluorescence ratio, 500 uM ATP over buffer (Cy3 cluster intensity, sum of 5 cycles each) (fold (ratio)); higher = stronger signal-on switching upon ATP binding; sequences stand for … in TCGTCGGCAGCGTCAGATGTGTATAAGAGACAGTTTTTTTTTTTTTTTTTTTTTTTTT…TC). Details: aptamer strand: ATP DNA aptamer (quencher-CACCTGGGGGAGTATTGCGGAGGAAGG + anchor), 100 nM annealed; ATP concentration: 500 uM; one replicate.
Procedure, shortened: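 Exposure to 500 uM ATP lasted 15 min at 22 °C before imaging, and a selection-buffer image was taken beforehand, for Cy3-labelled switching-strand clusters on a modified Illumina MiSeq flow-cell annealed to 100 nM quencher-labelled ATP aptamer. Five buffer/ATP cycles were run with NaOH stripping and re-annealing between them. The fluorescence ratio per cluster is summed target-cycle over summed buffer-cycle Cy3 intensity, averaged per switch-domain sequence. Clusters outside 100-1000 RFU were excluded.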
AGCACGCGAC showed a switch fluorescence ratio of 1.49. AGCACGGCCT gave a switch fluorescence ratio of 1.02. With AGCACGGGCG the switch fluorescence ratio was 1.11. For AGCACTACCG, the switch fluorescence ratio was 1.14. With AGCACTTATG the switch fluorescence ratio was 0.977. Work on AGCAGCCGGG yielded a switch fluorescence ratio of 1.06. Sequence AGCAGGATCT has a switch fluorescence ratio of 1.02. Sequence AGCAGGTGAC has a switch fluorescence ratio of 1.59. With AGCAGTTCCC the switch fluorescence ratio was 1.29. With AGCATAAGCT the switch fluorescence ratio was 1.01. For AGCATATATT, the switch fluorescence ratio was 1.12. In the case of AGCATCCGAT, the switch fluorescence ratio is reported as 1.04. In the case of AGCATCTGGC, the switch fluorescence ratio is reported as 1.02. For AGCATCTTGC, the switch fluorescence ratio was 0.969. Work on AGCCACACG yielded a switch fluorescence ratio of 1.06. For AGCCACCCAC, the switch fluorescence ratio was 1.6. Work on AGCCAGCGCT yielded a switch fluorescence ratio of 0.989. In the case of AGCCATATAT, the switch fluorescence ratio is reported as 1.05. Sequence AGCCATGCAC has a switch fluorescence ratio of 1.05. AGCCATTTCT gave a switch fluorescence ratio of 1.04. With AGCCCAACAA the switch fluorescence ratio was 4.76. Work on AGCCCATGG yielded a switch fluorescence ratio of 1.04. Sequence AGCCCCTTA has a switch fluorescence ratio of 0.997. Sequence AGCCCGCGGA has a switch fluorescence ratio of 1. In the case of AGCCCGTCGG, the switch fluorescence ratio is reported as 1.02. In the case of AGCCGGTCGC, the switch fluorescence ratio is reported as 1.02. With AGCCTATATT the switch fluorescence ratio was 1. In the case of AGCCTATTAC, the switch fluorescence ratio is reported as 1.35. With AGCCTCTGTT the switch fluorescence ratio was 0.961. In the case of AGCCTGCCGC, the switch fluorescence ratio is reported as 1.09. In the case of AGCCTGCGGA, the switch fluorescence ratio is reported as 0.984. AGCCTGTACG showed a switch fluorescence ratio of 1.02. AGCCTGTCCG was tested, and the switch fluorescence ratio was 1.03. Work on AGCCTTAAAC yielded a switch fluorescence ratio of 1.02. Sequence AGCCTTATTG has a switch fluorescence ratio of 0.987. In the case of AGCCTTCTTG, the switch fluorescence ratio is reported as 1.03. AGCCTTGC gave a switch fluorescence ratio of 1.11. Work on AGCCTTTCGG yielded a switch fluorescence ratio of 0.954. For AGCGACAGTT, the switch fluorescence ratio was 1.03. Work on AGCGAGACAT yielded a switch fluorescence ratio of 1.11. Sequence AGCGAGTATT has a switch fluorescence ratio of 0.969. Work on AGCGATCTTC yielded a switch fluorescence ratio of 1.04. Work on AGCGCCGGCC yielded a switch fluorescence ratio of 0.978. For AGCGCCTGAC, the switch fluorescence ratio was 1.19. Work on AGCGCCTGGT yielded a switch fluorescence ratio of 0.974. Sequence AGCGCGTTGA has a switch fluorescence ratio of 1.09. Work on AGCGCTCACC yielded a switch fluorescence ratio of 1.17. Sequence AGCGGAACTT has a switch fluorescence ratio of 1.06. For AGCGGAAGCC, the switch fluorescence ratio was 0.985. Sequence AGCGGACAGG has a switch fluorescence ratio of 1.04. With AGCGGCCAGT the switch fluorescence ratio was 1.01. Work on AGCGGGAC yielded a switch fluorescence ratio of 3.05. AGCGGGGACG was tested, and the switch fluorescence ratio was 1.11. AGCGTACAGT was tested, and the switch fluorescence ratio was 1.13. In the case of AGCGTGAGA, the switch fluorescence ratio is reported as 0.967. In the case of AGCGTGCAGA, the switch fluorescence ratio is reported as 1.02. AGCGTGGCTT showed a switch fluorescence ratio of 0.985. AGCGTGTT was tested, and the switch fluorescence ratio was 1. For AGCTAAATTT, the switch fluorescence ratio was 1.04. With AGCTAACATT the switch fluorescence ratio was 1.02. Work on AGCTATACAT yielded a switch fluorescence ratio of 1.18. With AGCTATGGAG the switch fluorescence ratio was 1.01. AGCTCAGCAT showed a switch fluorescence ratio of 1.26. AGCTCATTA was tested, and the switch fluorescence ratio was 1.01. AGCTCCTGTT gave a switch fluorescence ratio of 0.99. Work on AGCTCGGAAA yielded a switch fluorescence ratio of 1.01. AGCTCGGGAA showed a switch fluorescence ratio of 1.08. AGCTCTTAT showed a switch fluorescence ratio of 1.04. AGCTGAGGT gave a switch fluorescence ratio of 0.975. In the case of AGCTGCAAGT, the switch fluorescence ratio is reported as 0.992. AGCTGCAGGC gave a switch fluorescence ratio of 1.02. Work on AGCTGGAG yielded a switch fluorescence ratio of 0.991. Sequence AGCTGGGATC has a switch fluorescence ratio of 0.998. AGCTGGTGTT showed a switch fluorescence ratio of 1.05. Sequence AGCTGTGTCC has a switch fluorescence ratio of 0.989. In the case of AGCTGTTTTT, the switch fluorescence ratio is reported as 0.974. AGCTTATAAC gave a switch fluorescence ratio of 1.13. Sequence AGCTTCGTGA has a switch fluorescence ratio of 1.03. AGCTTGAAAG was tested, and the switch fluorescence ratio was 0.967. AGCTTGACGT gave a switch fluorescence ratio of 1.03. Work on AGGAAATCCA yielded a switch fluorescence ratio of 1. AGGAAATGAG was tested, and the switch fluorescence ratio was 1.1. With AGGAACGAGG the switch fluorescence ratio was 1. For AGGAAGCGC, the switch fluorescence ratio was 1.08. With AGGAAGGAAT the switch fluorescence ratio was 1.02. With AGGAAGGATT the switch fluorescence ratio was 1.1. Work on AGGACGGATG yielded a switch fluorescence ratio of 0.947. AGGAGAAGCA gave a switch fluorescence ratio of 0.958. With AGGAGACTAA the switch fluorescence ratio was 0.988. Work on AGGAGCGACC yielded a switch fluorescence ratio of 1.03. Work on AGGAGCGATG yielded a switch fluorescence ratio of 1.05. In the case of AGGAGCTGAG, the switch fluorescence ratio is reported as 1.06. AGGAGGAAG showed a switch fluorescence ratio of 0.981. For AGGAGGACTA, the switch fluorescence ratio was 1.02. In the case of AGGAGGTTCT, the switch fluorescence ratio is reported as 0.972. AGGAGTACCC showed a switch fluorescence ratio of 1. Sequence AGGAGTAGGG has a switch fluorescence ratio of 0.973. In the case of AGGAGTTAT, the switch fluorescence ratio is reported as 0.952. AGGAGTTCGC gave a switch fluorescence ratio of 0.976. In the case of AGGATAAGGT, the switch fluorescence ratio is reported as 0.988. AGGATAGT gave a switch fluorescence ratio of 1.03. Work on AGGATAGTAG yielded a switch fluorescence ratio of 0.985. For AGGATCAAGG, the switch fluorescence ratio was 0.985. With AGGCAACTCC the switch fluorescence ratio was 1.24. AGGCAATAAG was tested, and the switch fluorescence ratio was 1.12. Sequence AGGCAATATT has a switch fluorescence ratio of 1.79. With AGGCACGCAC the switch fluorescence ratio was 1.76. For AGGCACGGGA, the switch fluorescence ratio was 1.01. With AGGCAGGATT the switch fluorescence ratio was 1.01. In the case of AGGCAGGCCG, the switch fluorescence ratio is reported as 1.03. In the case of AGGCAGTTGT, the switch fluorescence ratio is reported as 0.978. With AGGCATGGTC the switch fluorescence ratio was 1.04. With AGGCCAAGTA the switch fluorescence ratio was 0.988. AGGCCGCT gave a switch fluorescence ratio of 0.982. Sequence AGGCCGGG has a switch fluorescence ratio of 1.04. In the case of AGGCGAACGG, the switch fluorescence ratio is reported as 1.04. For AGGCGAGGGT, the switch fluorescence ratio was 1.02. In the case of AGGCGAGGTG, the switch fluorescence ratio is reported as 0.993. Work on AGGCGCAACT yielded a switch fluorescence ratio of 1.1. With AGGCGCGGCT the switch fluorescence ratio was 1.09. Work on AGGCGCTTAA yielded a switch fluorescence ratio of 0.994. AGGCGGTGAC gave a switch fluorescence ratio of 1.04. In the case of AGGCGTCAAG, the switch fluorescence ratio is reported as 1.01. AGGCGTCCGT gave a switch fluorescence ratio of 0.991. In the case of AGGCTATGAC, the switch fluorescence ratio is reported as 1.01. AGGCTCTGTG was tested, and the switch fluorescence ratio was 0.953. Sequence AGGCTCTTAC has a switch fluorescence ratio of 1.06. In the case of AGGCTGCTCT, the switch fluorescence ratio is reported as 0.995. AGGCTGTCGC was tested, and the switch fluorescence ratio was 1.02. For AGGCTTAAC, the switch fluorescence ratio was 1.02. In the case of AGGCTTAACA, the switch fluorescence ratio is reported as 0.993. Sequence AGGCTTCATG has a switch fluorescence ratio of 1.03. AGGCTTTCTG gave a switch fluorescence ratio of 0.992. With AGGGAATTTA the switch fluorescence ratio was 1.03. Work on AGGGACGGGT yielded a switch fluorescence ratio of 1. For AGGGACGTA, the switch fluorescence ratio was 1. With AGGGACTAAG the switch fluorescence ratio was 1. In the case of AGGGAGCTTG, the switch fluorescence ratio is reported as 0.982. AGGGAGTAAG gave a switch fluorescence ratio of 1.03. With AGGGATTGAC the switch fluorescence ratio was 1.03. For AGGGCACGGC, the switch fluorescence ratio was 1.04. AGGGCACTGT gave a switch fluorescence ratio of 0.973. AGGGCGAACC showed a switch fluorescence ratio of 1.06. For AGGGCGAATG, the switch fluorescence ratio was 0.955. Sequence AGGGCGAGGA has a switch fluorescence ratio of 0.967. AGGGCGATC showed a switch fluorescence ratio of 1.05. For AGGGCGCCT, the switch fluorescence ratio was 0.985. With AGGGCTGTCA the switch fluorescence ratio was 0.993. AGGGGAGTCT showed a switch fluorescence ratio of 1. AGGGGATACG was tested, and the switch fluorescence ratio was 1.02. In the case of AGGGGCCATA, the switch fluorescence ratio is reported as 1.04. AGGGGCTCGC gave a switch fluorescence ratio of 1.05. For AGGGGGG, the switch fluorescence ratio was 0.999. In the case of AGGGGGTCC, the switch fluorescence ratio is reported as 0.974. With AGGGGTCCAA the switch fluorescence ratio was 0.974. Sequence AGGGGTCGG has a switch fluorescence ratio of 1.04. Work on AGGGGTCTTC yielded a switch fluorescence ratio of 0.993. For AGGGGTTTAG, the switch fluorescence ratio was 0.974. Sequence AGGGTAACTC has a switch fluorescence ratio of 1.02. For AGGGTACTA, the switch fluorescence ratio was 1.06. Work on AGGGTCGTGG yielded a switch fluorescence ratio of 0.942. AGGGTGAACT gave a switch fluorescence ratio of 1.02. Work on AGGGTGACGT yielded a switch fluorescence ratio of 1.01. In the case of AGGGTGACTG, the switch fluorescence ratio is reported as 1.09. AGGGTGCTGC was tested, and the switch fluorescence ratio was 1.01. AGGGTGGCGA was tested, and the switch fluorescence ratio was 1.01. AGGGTTAGAG was tested, and the switch fluorescence ratio was 1.01. AGGGTTTTT was tested, and the switch fluorescence ratio was 1.04. AGGTAAGTGT was tested, and the switch fluorescence ratio was 0.979. With AGGTAATACC the switch fluorescence ratio was 1.03. With AGGTAATCTG the switch fluorescence ratio was 0.99. AGGTACAAGG showed a switch fluorescence ratio of 1.02. Sequence AGGTACAGGA has a switch fluorescence ratio of 1.03. AGGTACATAT showed a switch fluorescence ratio of 1.02. For AGGTACATGG, the switch fluorescence ratio was 1.07. Work on AGGTACCAGC yielded a switch fluorescence ratio of 1.01. AGGTACCTGT gave a switch fluorescence ratio of 0.978. For AGGTAGAAG, the switch fluorescence ratio was 1. AGGTAGACTC was tested, and the switch fluorescence ratio was 1.01. AGGTAGGGTC showed a switch fluorescence ratio of 0.984. AGGTATAGAA was tested, and the switch fluorescence ratio was 1.01. AGGTCAGCTA showed a switch fluorescence ratio of 0.98. AGGTCGCCCC showed a switch fluorescence ratio of 0.974. Sequence AGGTCGTCC has a switch fluorescence ratio of 1.03. Sequence AGGTCGTTCA has a switch fluorescence ratio of 0.983. AGGTCTCAAC gave a switch fluorescence ratio of 1.03. Work on AGGTCTTTCT yielded a switch fluorescence ratio of 0.975. For AGGTGAATTT, the switch fluorescence ratio was 1.05. AGGTGATGAC gave a switch fluorescence ratio of 1.02. For AGGTGCGTCG, the switch fluorescence ratio was 1.03. In the case of AGGTGCTCCG, the switch fluorescence ratio is reported as 1.05. AGGTGCTGGA showed a switch fluorescence ratio of 1.04. AGGTGGCGCC showed a switch fluorescence ratio of 1.01. In the case of AGGTGGGAAT, the switch fluorescence ratio is reported as 1.12. Work on AGGTGGGCTA yielded a switch fluorescence ratio of 1.01. AGGTGGGCTC gave a switch fluorescence ratio of 0.945. In the case of AGGTGGTTTG, the switch fluorescence ratio is reported as 1.06. AGGTGTCTCA gave a switch fluorescence ratio of 1. Sequence AGGTGTGGAC has a switch fluorescence ratio of 0.967. For AGGTGTGTTC, the switch fluorescence ratio was 1.01. AGGTTAAGAA gave a switch fluorescence ratio of 0.954.
